Results reported in the supplement of paper PMC8728848.
Some of the results follow.

What was measured:
Assay in all cases: glycan array binding signal (z-score within array); higher = stronger binding
Conditions in all cases: glycan notation: IUPAC condensed, linker removed
[1] = target: Neu5Ac(a2-3)[GalNAc(b1-4)]Gal(b1-4)Glc
Summary of the method: (§1)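 Glycan array data were curated from 3228 arrays in the Consortium for Functional Glycomics database and kept only where the protein sequence was available. Glycan names were converted to IUPAC-condensed notation, and columns mapping to the same glycan were averaged. The binding signal is a within-array Z-score, averaged across arrays of the same protein sequence at different concentrations or buffers and across linkers. Negative Z-scores can be read as non-binding.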

[2] = target: Neu5Ac(a2-3)[GalNAc(b1-4)]Gal(b1-4)GlcNAc
Summary of the method: as §1

[3] = target: Neu5Ac(a2-3)[GalNAc(b1-4)]Gal(b1-4)GlcNAc(b1-3)GalNAc
Summary of the method: as §1

[4] = target: Neu5Ac(a2-3)[Neu5Ac(a2-6)]GalNAc
Summary of the method: as §1

Neu5Ac(a2-6)Gal = target: Neu5Ac(a2-6)Gal
Summary of the method: as §1

[5] = target: Neu5Ac(a2-6)Gal(b1-3)GlcNAc(b1-3)[Gal(b1-4)GlcNAc(b1-6)]Gal(b1-4)Glc
Summary of the method: as §1

Neu5Ac(a2-6)Gal(b1-4)Glc = target: Neu5Ac(a2-6)Gal(b1-4)Glc
Summary of the method: as §1

[6] = target: Neu5Ac(a2-6)Gal(b1-4)GlcNAc
Summary of the method: as §1

[7] = target: Neu5Ac(a2-6)Gal(b1-4)GlcNAc(b1-2)Man(a1-3)Man(b1-4)GlcNAc(b1-4)GlcNAc
Summary of the method: as §1

[8] = target: Neu5Ac(a2-6)Gal(b1-4)GlcNAc(b1-2)Man(a1-3)[Gal(b1-4)GlcNAc(b1-2)Man(a1-6)]Man(b1-4)GlcNAc(b1-4)GlcNAc
Summary of the method: as §1

[9] = target: Neu5Ac(a2-6)Gal(b1-4)GlcNAc(b1-2)Man(a1-3)[GlcNAc(b1-2)Man(a1-6)]Man(b1-4)GlcNAc(b1-4)GlcNAc
Summary of the method: as §1

[10] = target: Neu5Ac(a2-6)Gal(b1-4)GlcNAc(b1-2)Man(a1-3)[GlcNAc(b1-2)Man(b1-4)GlcNAc(b1-2)Man(a1-6)]Man(b1-4)GlcNAc(b1-4)GlcNAc
Summary of the method: as §1

[11] = target: Neu5Ac(a2-6)Gal(b1-4)GlcNAc(b1-2)Man(a1-3)[Man(a1-6)]Man(b1-4)GlcNAc(b1-4)GlcNAc
Summary of the method: as §1

[12] = target: Neu5Ac(a2-6)Gal(b1-4)GlcNAc(b1-2)Man(a1-3)[Neu5Ac(a2-6)Gal(b1-4)GlcNAc(b1-2)Man(a1-6)]Man(b1-4)GlcNAc(b1-4)GlcNAc
Summary of the method: as §1

[13] = target: Neu5Ac(a2-6)Gal(b1-4)GlcNAc(b1-2)Man(a1-3)[Neu5Ac(a2-6)Gal(b1-4)GlcNAc(b1-2)Man(a1-6)]Man(b1-4)GlcNAc(b1-4)[Fuc(a1-6)]GlcNAc
Summary of the method: as §1

[14] = target: Neu5Ac(a2-6)Gal(b1-4)GlcNAc(b1-2)Man(a1-6)Man(b1-4)GlcNAc(b1-4)GlcNAc
Summary of the method: as §1

[15] = target: Neu5Ac(a2-6)Gal(b1-4)GlcNAc(b1-2)Man(a1-6)[Gal(b1-4)GlcNAc(b1-2)Man(a1-3)]Man(b1-4)GlcNAc(b1-4)GlcNAc
Summary of the method: as §1

[16] = target: Neu5Ac(a2-6)Gal(b1-4)GlcNAc(b1-2)Man(a1-6)[GlcNAc(b1-2)Man(a1-3)]Man(b1-4)GlcNAc(b1-4)GlcNAc
Summary of the method: as §1

[17] = target: Neu5Ac(a2-6)Gal(b1-4)GlcNAc(b1-2)Man(a1-6)[Man(a1-3)]Man(b1-4)GlcNAc(b1-4)GlcNAc
Summary of the method: as §1

[18] = target: Neu5Ac(a2-6)Gal(b1-4)GlcNAc(b1-3)Gal(b1-3)GlcNAc
Summary of the method: as §1

[19] = target: Neu5Ac(a2-6)Gal(b1-4)GlcNAc(b1-3)Gal(b1-4)GlcNAc
Summary of the method: as §1

[20] = target: Neu5Ac(a2-6)Gal(b1-4)GlcNAc(b1-3)Gal(b1-4)GlcNAc(b1-3)Gal(b1-4)GlcNAc
Summary of the method: as §1

[21] = target: Neu5Ac(a2-6)Gal(b1-4)GlcNAc(b1-3)Gal(b1-4)[Fuc(a1-3)]GlcNAc(b1-3)Gal(b1-4)[Fuc(a1-3)]GlcNAc
Summary of the method: as §1

[22] = target: Neu5Ac(a2-6)Gal(b1-4)GlcNAc(b1-3)GalNAc
Summary of the method: as §1

[23] = target: Neu5Ac(a2-6)Gal(b1-4)GlcNAc(b1-3)[Neu5Ac(a2-6)Gal(b1-4)GlcNAc(b1-6)]GalNAc
Summary of the method: as §1

[24] = target: Neu5Ac(a2-6)Gal(b1-4)GlcNAc(b1-6)GalNAc
Summary of the method: as §1

[25] = target: Neu5Ac(a2-6)Gal(b1-4)GlcNAc(b1-6)[Gal(b1-3)GlcNAc(b1-3)]Gal(b1-4)Glc
Summary of the method: as §1

[26] = target: Neu5Ac(a2-6)Gal(b1-4)GlcNAc6S
Summary of the method: as §1

Neu5Ac(a2-6)GalNAc = target: Neu5Ac(a2-6)GalNAc
Summary of the method: as §1

[27] = target: Neu5Ac(a2-6)GalNAc(b1-4)GlcNAc
Summary of the method: as §1

[28] = target: Neu5Ac(a2-6)GalNAc(b1-4)GlcNAc6S
Summary of the method: as §1

[29] = target: Neu5Ac(a2-6)GlcNAc(b1-4)GlcNAc
Summary of the method: as §1

[30] = target: Neu5Ac(a2-6)GlcNAc(b1-4)GlcNAc(b1-4)GlcNAc
Summary of the method: as §1

Neu5Ac(a2-8)Neu5Ac = target: Neu5Ac(a2-8)Neu5Ac
Summary of the method: as §1

[31] = target: Neu5Ac(a2-8)Neu5Ac(a2-3)Gal(b1-3)GalNAc(b1-4)[Neu5Ac(a2-8)Neu5Ac(a2-3)]Gal(b1-4)Glc
Summary of the method: as §1

[32] = target: Neu5Ac(a2-8)Neu5Ac(a2-3)Gal(b1-4)Glc
Summary of the method: as §1

[33] = target: Neu5Ac(a2-8)Neu5Ac(a2-3)[Gal(b1-3)GalNAc(b1-4)]Gal(b1-4)Glc
Summary of the method: as §1

[34] = target: Neu5Ac(a2-8)Neu5Ac(a2-3)[GalNAc(b1-4)]Gal(b1-4)Glc
Summary of the method: as §1

[35] = target: Neu5Ac(a2-8)Neu5Ac(a2-8)Neu5Ac
Summary of the method: as §1

[36] = target: Neu5Ac(a2-8)Neu5Ac(a2-8)Neu5Ac(a2-3)Gal(b1-4)Glc
Summary of the method: as §1

[37] = target: Neu5Ac(a2-8)Neu5Ac(a2-8)Neu5Ac(a2-3)[GalNAc(b1-4)]Gal(b1-4)Glc
Summary of the method: as §1

[38] = target: Neu5Ac(a2-8)Neu5Ac(a2-8)Neu5Ac(a2-8)Neu5Ac(a2-3)[GalNAc(b1-4)]Gal(b1-4)Glc
Summary of the method: as §1

[39] = target: Neu5Ac(b2-6)Gal(b1-4)GlcNAc
Summary of the method: as §1

Neu5Ac(b2-6)GalNAc = target: Neu5Ac(b2-6)GalNAc
Summary of the method: as §1

[40] = target: Neu5Ac9Ac(a2-3)Gal(b1-3)GlcNAc
Summary of the method: as §1

[41] = target: Neu5Ac9Ac(a2-3)Gal(b1-4)GlcNAc
Summary of the method: as §1

[42] = target: Neu5Ac9Ac(a2-6)Gal(b1-4)GlcNAc
Summary of the method: as §1

[43] = target: Neu5Gc(a2-3)Gal(b1-3)GlcNAc
Summary of the method: as §1

[44] = target: Neu5Gc(a2-3)Gal(b1-3)[Fuc(a1-4)]GlcNAc
Summary of the method: as §1

Neu5Gc(a2-3)Gal(b1-4)Glc = target: Neu5Gc(a2-3)Gal(b1-4)Glc
Summary of the method: as §1

[45] = target: Neu5Gc(a2-3)Gal(b1-4)GlcNAc
Summary of the method: as §1

[46] = target: Neu5Gc(a2-3)Gal(b1-4)[Fuc(a1-3)]GlcNAc
Summary of the method: as §1

[47] = target: Neu5Gc(a2-6)Gal(b1-4)GlcNAc
Summary of the method: as §1

Neu5Gc(a2-6)GalNAc = target: Neu5Gc(a2-6)GalNAc
Summary of the method: as §1

[48] = target: Neu5Gc(b2-6)Gal(b1-4)GlcNAc
Summary of the method: as §1

B1: PRKCE (Homo sapiens), Q02156 (protein)
chain: MVVFNGLLKIKICEAVSLKPTAWSLRHAVGPRPQTFLLDPYIALNVDDSRIGQTATKQKTNSPAWHDEFVTDVCNGRKIELAVFHDAPIGYDDFVANCTIQFEELLQNGSRHFEDWIDLEPEGRVYVIIDLSGSSGEAPKDNEERVFRERMRPRKRQGAVRRRVHQVNGHKFMATYLRQPTYCSHCRDFIWGVIGKQGYQCQVCTCVVHKRCHELIITKCAGLKKQETPDQVGSQRFSVNMPHKFGIHNYKVPTFCDHCGSLLWGLLRQGLQCKVCKMNVHRRCETNVAPNCGVDARGIAKVLADLGVTPDKITNSGQRRKKLIAGAESPQPASGSSPSEEDRSKSAPTSPCDQEIKELENNIRKALSFDNRGEEHRAASSPDGQLMSPGENGEVRQGQAKRLGLDEFNFIKVLGKGSFGKVMLAELKGKDEVYAVKVLKKDVILQDDDVDCTMTEKRILALARKHPYLTQLYCCFQTKDRLFFVMEYVNGGDLMFQIQRSRKFDEPRSRFYAAEVTSALMFLHQHGVIYRDLKLDNILLDAEGHCKLADFGMCKEGILNGVTTTTFCGTPDYIAPEILQELEYGPSVDWWALGVLMYEMMAGQPPFEADNEDDLFESILHDDVLYPVWLSKEAVSILKAFMTKNPHKRLGCVASQNGEDAIKQHPFFKEIDWVLLEQKKIKPPFKPRIKTKRDVNNFDQDFTREEPVLTLVDEAIVKQINQEEFKGFSYFGEDLMP
glycan array binding signal (z-score) [1]: -0.201
glycan array binding signal (z-score) [2]: -0.347
glycan array binding signal (z-score) [3]: 0.849
glycan array binding signal (z-score) [4]: -0.368
glycan array binding signal (z-score) (Neu5Ac(a2-6)Gal): -0.279
glycan array binding signal (z-score) [5]: 0.051
glycan array binding signal (z-score) (Neu5Ac(a2-6)Gal(b1-4)Glc): -0.13
glycan array binding signal (z-score) [6]: -0.297
glycan array binding signal (z-score) [7]: -0.232
glycan array binding signal (z-score) [8]: 0.571
glycan array binding signal (z-score) [9]: 3.58
glycan array binding signal (z-score) [10]: -0.105
glycan array binding signal (z-score) [11]: 0.351
glycan array binding signal (z-score) [12]: 0.106
glycan array binding signal (z-score) [13]: -0.322
glycan array binding signal (z-score) [14]: 0.686
glycan array binding signal (z-score) [15]: 0.796
glycan array binding signal (z-score) [16]: -0.266
glycan array binding signal (z-score) [17]: 0.782
glycan array binding signal (z-score) [18]: -0.271
glycan array binding signal (z-score) [19]: -0.39
glycan array binding signal (z-score) [20]: 0.225
glycan array binding signal (z-score) [21]: -0.186
glycan array binding signal (z-score) [22]: -0.3
glycan array binding signal (z-score) [23]: -0.286
glycan array binding signal (z-score) [24]: -0.321
glycan array binding signal (z-score) [25]: -0.441
glycan array binding signal (z-score) [26]: -0.31
glycan array binding signal (z-score) (Neu5Ac(a2-6)GalNAc): -0.427
glycan array binding signal (z-score) [27]: -0.353
glycan array binding signal (z-score) [28]: -0.046
glycan array binding signal (z-score) [29]: -0.318
glycan array binding signal (z-score) [30]: -0.361
glycan array binding signal (z-score) (Neu5Ac(a2-8)Neu5Ac): 0.185
glycan array binding signal (z-score) [31]: -0.296
glycan array binding signal (z-score) [32]: -0.335
glycan array binding signal (z-score) [33]: -0.308
glycan array binding signal (z-score) [34]: 0.559
glycan array binding signal (z-score) [35]: 1.19
glycan array binding signal (z-score) [36]: 0.163
glycan array binding signal (z-score) [37]: -0.074
glycan array binding signal (z-score) [38]: 0.987
glycan array binding signal (z-score) [39]: -0.121
glycan array binding signal (z-score) (Neu5Ac(b2-6)GalNAc): -0.295
glycan array binding signal (z-score) [40]: -0.41
glycan array binding signal (z-score) [41]: -0.408
glycan array binding signal (z-score) [42]: -0.427
glycan array binding signal (z-score) [43]: -0.344
glycan array binding signal (z-score) [44]: -0.22
glycan array binding signal (z-score) (Neu5Gc(a2-3)Gal(b1-4)Glc): -0.141
glycan array binding signal (z-score) [45]: -0.302
glycan array binding signal (z-score) [46]: -0.302
glycan array binding signal (z-score) [47]: -0.293
glycan array binding signal (z-score) (Neu5Gc(a2-6)GalNAc): -0.342
glycan array binding signal (z-score) [48]: 0.617
